Assay results taken from US10299477B2 (priority 2015, dated 2019).

What was measured:
Type in all cases: in vivo
Alternaia brassicicola = assay: Test Example C: Alternaria sooty spot on cabbage; settings: 250 ppm spray, preventive; control value class
Description: [Test Example C] Alternaria Sooty Spot on Cabbage
Seeds of a test plant (cabbage variety: Shikidori) were planted followed by cultivating until the cotyledons extended.

Puccinia recondita = assay: Test Example E: Brown rust on wheat; settings: 250 ppm spray, preventive; control value class
Description: [Test Example E] Brown Rust on Wheat

Botrytis cinerea = assay: Test Example B: Gray mold on tomato; settings: 250 ppm spray, preventive; control value class
Description: [Test Example B] Gray Mold on Tomato
Seeds of a test plant (tomato variety: Oogata Fukuju) were planted followed by cultivating until three to five first leaves (true leaves) appeared.

Plasmopara viticola = assay: Test Example G: Downy mildew on vine; settings: 250 ppm spray (2.5 ml/pot), preventive; 7-10 days after inoculation; control value class
Description: [Test Example G] Downy Mildew on Vine
Seeds of a test plant (grape variety: Neomuscat) were planted followed by cultivating until three to four first leaves appeared. […] After the sprayed dilutions were dried, a zoosporangia suspension (1-2×10^4 zoosporangia/ml) of Plasmopara viticola was inoculated to the plants by spraying.

[1] = test system: Blumeria graminis f sp. hordei; assay: Test Example D: Powdery mildew on barley; settings: 250 ppm spray, preventive; control value class
Description: [Test Example D] Powdery Mildew on Barley
After the sprayed dilutions were dried, conidia of Blumeria graminis f sp. hordei were inoculated to the plants by shaking off.

| SMILES | Test C control value (Alternaria sooty spot on cabbage) (Alternaia brassicicola) | Test E control value (brown rust on wheat) (Puccinia recondita) | Test B control value (gray mold on tomato) (Botrytis cinerea) | Test G control value (downy mildew on vine) (Plasmopara viticola) | Test D control value (powdery mildew on barley) [1] |
| --- | --- | --- | --- | --- | --- |
| CCn1c(-c2c(F)cccc2F)c(-c2cccc(Br)c2)ccc1=O [Compound 327] | L (L shows 50% or less of control values) | H (H shows more than 50% of control values) | L (L shows 50% or less of control values) | L (L shows 50% or less of control values) | L (L shows 50% or less of control values) |
| CCn1c(-c2c(F)cccc2F)c(-c2cccc(Br)c2)cc(Cl)c1=O [Compound 328] | L (L shows 50% or less of control values) | L (L shows 50% or less of control values) | L (L shows 50% or less of control values) | L (L shows 50% or less of control values) | L (L shows 50% or less of control values) |
| CCn1c(-c2c(F)cccc2F)c(-c2cc(OC)ccc2Cl)cc(C)c1=O [Compound 329, 5-(2-chloro-5-methoxyphenyl)-6-(2,6-difluorophenyl)-1-ethyl-3-methylpyridine-2(1H)-one] | H (H shows more than 50% of control values) | H (H shows more than 50% of control values) | H (H shows more than 50% of control values) | H (H shows more than 50% of control values) | H (H shows more than 50% of control values) |
| CCn1c(-c2c(F)cccc2F)c(-c2cc(OCOCCOC)ccc2Cl)ccc1=O [Compound 330] | L (L shows 50% or less of control values) | H (H shows more than 50% of control values) | H (H shows more than 50% of control values) | H (H shows more than 50% of control values) | H (H shows more than 50% of control values) |
| COCCOCOc1ccc(Cl)c(-c2ccc(=O)n(C)c2-c2c(F)cccc2F)c1 [Compound 331] | L (L shows 50% or less of control values) | H (H shows more than 50% of control values) | H (H shows more than 50% of control values) | H (H shows more than 50% of control values) | H (H shows more than 50% of control values) |
| CCn1c(-c2c(F)cccc2F)c(-c2ccc(Cl)cc2Cl)ccc1=O [Compound 332] | H (H shows more than 50% of control values) | H (H shows more than 50% of control values) | H (H shows more than 50% of control values) | H (H shows more than 50% of control values) | H (H shows more than 50% of control values) |
| CCn1c(-c2c(F)cccc2F)c(-c2ccc(Cl)cc2Cl)cc(Cl)c1=O [Compound 333] | L (L shows 50% or less of control values) | H (H shows more than 50% of control values) | L (L shows 50% or less of control values) | L (L shows 50% or less of control values) | H (H shows more than 50% of control values) |
| COc1cc(OC)c(Cl)c(-c2ccc(=O)n(CC(F)(F)F)c2-c2c(F)cccc2F)c1 [Compound 335] | H (H shows more than 50% of control values) | H (H shows more than 50% of control values) | H (H shows more than 50% of control values) | H (H shows more than 50% of control values) | H (H shows more than 50% of control values) |
| COc1cc(OC)c(Cl)c(C2=C(c3c(F)cccc3F)N(CC(F)F)C(=O)CC2)c1 [Compound 336] | H (H shows more than 50% of control values) | H (H shows more than 50% of control values) | H (H shows more than 50% of control values) | H (H shows more than 50% of control values) | H (H shows more than 50% of control values) |
| COc1cc(OC)c(Cl)c(-c2ccc(=O)n(CC(F)F)c2-c2c(F)cccc2F)c1 [Compound 337] | H (H shows more than 50% of control values) | H (H shows more than 50% of control values) | H (H shows more than 50% of control values) | H (H shows more than 50% of control values) | H (H shows more than 50% of control values) |
| COc1cc(OC)c(Cl)c(-c2ccc(=O)n(C)c2-c2c(F)cc(OCC(F)F)cc2F)c1 [Compound 338] | H (H shows more than 50% of control values) | H (H shows more than 50% of control values) | H (H shows more than 50% of control values) | H (H shows more than 50% of control values) | L (L shows 50% or less of control values) |
| Cn1c(-c2c(F)cc(F)cc2F)c(-c2cc(F)ccc2Cl)ccc1=O [Compound 339] | H (H shows more than 50% of control values) | H (H shows more than 50% of control values) | H (H shows more than 50% of control values) | H (H shows more than 50% of control values) | H (H shows more than 50% of control values) |
| Cn1c(-c2c(F)cc(F)cc2F)c(-c2cc(F)ccc2Cl)cc(Cl)c1=O [Compound 340] | H (H shows more than 50% of control values) | H (H shows more than 50% of control values) | H (H shows more than 50% of control values) | L (L shows 50% or less of control values) | H (H shows more than 50% of control values) |
| CCn1c(-c2c(F)cccc2F)c(-c2cccc(C#N)c2)ccc1=O [Compound 341] | L (L shows 50% or less of control values) | L (L shows 50% or less of control values) | L (L shows 50% or less of control values) | L (L shows 50% or less of control values) | L (L shows 50% or less of control values) |
| CCN1C(=O)CCC(c2cc(OC)cc(OC)c2Cl)=C1c1c(F)cc(F)cc1F [Compound 342] | H (H shows more than 50% of control values) | H (H shows more than 50% of control values) | H (H shows more than 50% of control values) | L (L shows 50% or less of control values) | H (H shows more than 50% of control values) |
| COc1cc(OC)c(Cl)c(-c2ccc(=O)n(CC(F)F)c2-c2c(F)cc(F)cc2F)c1 [Compound 343] | H (H shows more than 50% of control values) | H (H shows more than 50% of control values) | H (H shows more than 50% of control values) | H (H shows more than 50% of control values) | H (H shows more than 50% of control values) |
| O=c1ccc(-c2ccc(Cl)cc2Cl)c(-c2c(F)cccc2F)n1CC(F)F [Compound 345] | H (H shows more than 50% of control values) | H (H shows more than 50% of control values) | H (H shows more than 50% of control values) | H (H shows more than 50% of control values) | H (H shows more than 50% of control values) |
| Cn1c(-c2c(F)cccc2F)c(-c2ccc(Cl)cc2Cl)ccc1=O [Compound 346] | H (H shows more than 50% of control values) | L (L shows 50% or less of control values) | H (H shows more than 50% of control values) | L (L shows 50% or less of control values) | L (L shows 50% or less of control values) |
| O=c1c(Cl)cc(-c2ccc(Cl)cc2Cl)c(-c2c(F)cccc2F)n1CC(F)F [Compound 347] | H (H shows more than 50% of control values) | H (H shows more than 50% of control values) | H (H shows more than 50% of control values) | L (L shows 50% or less of control values) | H (H shows more than 50% of control values) |
